The other results are listed elsewhere or left out. These are noisy estimates, calculated here from bound and input reads.

Consider 115 sequences from the BET-seq Pho4 binding data (Le et al. 2018).

In this test the target is T1, Pho4 (S. cerevisiae) (UniProt P07270).
T1 sequence: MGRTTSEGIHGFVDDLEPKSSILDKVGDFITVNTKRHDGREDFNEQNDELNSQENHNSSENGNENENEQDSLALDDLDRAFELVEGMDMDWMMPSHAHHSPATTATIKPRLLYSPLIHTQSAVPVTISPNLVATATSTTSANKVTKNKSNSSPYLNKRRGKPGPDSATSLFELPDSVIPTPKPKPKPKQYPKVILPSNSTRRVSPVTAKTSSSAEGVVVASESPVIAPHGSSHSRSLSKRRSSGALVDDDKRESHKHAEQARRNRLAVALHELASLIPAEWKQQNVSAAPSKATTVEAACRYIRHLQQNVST
Description: relative binding free energy (BET-seq); higher = weaker binding. Conditions: reference: library average.
For the sequence TGGGCCACGTGTCAGG, the “relative binding free energy” value was -0.25 kcal/mol.

As to GCGGTCACGTGGGGTT, the “relative binding free energy” value worked out at 0.08 kcal/mol.

For the sequence TTATGCACGTGAATGC, the “relative binding free energy” value came out at 0.16 kcal/mol.

Regarding GGAATCACGTGATGAT, the “relative binding free energy” value is 0.37 kcal/mol.

Take AAATACACGTGTTGTA: the “relative binding free energy” value was determined as 0.09 kcal/mol.

With CGTGCCACGTGGGGCG, the “relative binding free energy” value was -0.24 kcal/mol.

Turning to GGTGGCACGTGTCGCG, the “relative binding free energy” value was -0.08 kcal/mol.

As for GGATTCACGTGCGAAT, the “relative binding free energy” value is 0.32 kcal/mol.

In the case of GTGGGCACGTGGAAAA, the “relative binding free energy” value came out at 0.11 kcal/mol.

On to CGAGGCACGTGTAGTT, for which the “relative binding free energy” value worked out at 0.04 kcal/mol.

For CTTTTCACGTGCGTGG, the “relative binding free energy” value is 0.24 kcal/mol.

Take TACTTCACGTGAGGTA: the “relative binding free energy” value is 0.32 kcal/mol.

For AAGGACACGTGGAGGG, the “relative binding free energy” value came to 0.07 kcal/mol.

Consider GAGCTCACGTGGAGGG, for which the “relative binding free energy” value was 0.21 kcal/mol.

Turning to AGTATCACGTGAGAGA, the “relative binding free energy” value is 0.46 kcal/mol.

Regarding TGGATCACGTGAGTAT, the “relative binding free energy” value came out at 0.24 kcal/mol.

On to TAGCTCACGTGGATGA, for which the “relative binding free energy” value was 0.29 kcal/mol.

TGTACCACGTGGTGTT: the “relative binding free energy” value was -0.1 kcal/mol.

With GGTTTCACGTGACGCT, the “relative binding free energy” value is 0.35 kcal/mol.

Take GGTGACACGTGCTGTG: the “relative binding free energy” value was -0.15 kcal/mol.

AAGGACACGTGGAGGC: the “relative binding free energy” value was 0.08 kcal/mol.

Turning to CTGGTCACGTGGATTA, the “relative binding free energy” value amounted to 0.1 kcal/mol.

ATCGCCACGTGTGTGG: the “relative binding free energy” value was 0.04 kcal/mol.

Regarding TATACCACGTGTGTGA, the “relative binding free energy” value was -0.05 kcal/mol.

For ACTGTCACGTGAAGTT, the “relative binding free energy” value turned out to be 0.28 kcal/mol.

Regarding TATCGCACGTGATGTG, the “relative binding free energy” value is -0.06 kcal/mol.

GATTCCACGTGGAGGG: the “relative binding free energy” value is 0.2 kcal/mol.

On to AAGGTCACGTGTCGAG, for which the “relative binding free energy” value was 0.15 kcal/mol.

Turning to CGTTGCACGTGTTAAG, the “relative binding free energy” value is -0.09 kcal/mol.

For the sequence TTCTTCACGTGTGTCG, the “relative binding free energy” value stood at 0.21 kcal/mol.

As for ATAATCACGTGTTAGT, the “relative binding free energy” value was 0.07 kcal/mol.

For GTTAGCACGTGTGAAG, the “relative binding free energy” value was -0.04 kcal/mol.

In the case of TGTTCCACGTGTAGAT, the “relative binding free energy” value was found to be 0.19 kcal/mol.

Regarding CTATGCACGTGTTATA, the “relative binding free energy” value was -0.09 kcal/mol.

In the case of TTATTCACGTGTTACT, the “relative binding free energy” value amounted to 0.08 kcal/mol.

For the sequence GGATTCACGTGGGCTG, the “relative binding free energy” value was found to be 0.17 kcal/mol.

GTAAACACGTGAGCGG: the “relative binding free energy” value turned out to be 0.33 kcal/mol.

Turning to ATGAACACGTGTAGTG, the “relative binding free energy” value was -0.09 kcal/mol.

With CGTGCCACGTGTGGGG, the “relative binding free energy” value was -0.1 kcal/mol.

Regarding GCATTCACGTGTGGTG, the “relative binding free energy” value was determined as 0.37 kcal/mol.

Turning to TGCGGCACGTGGCGAT, the “relative binding free energy” value is -0.19 kcal/mol.

For CAGGGCACGTGGTAAT, the “relative binding free energy” value was -0.22 kcal/mol.

As for GATGACACGTGAGTAT, the “relative binding free energy” value was 0.37 kcal/mol.

Take CTCGTCACGTGGGTGT: the “relative binding free energy” value is -0.17 kcal/mol.

Take TGGAGCACGTGCGGTA: the “relative binding free energy” value is -0.19 kcal/mol.

Regarding ATGTGCACGTGGGTGT, the “relative binding free energy” value was -0.14 kcal/mol.

In the case of GGATGCACGTGGAATA, the “relative binding free energy” value is 0.21 kcal/mol.

Consider TGTGTCACGTGCGGTT, for which the “relative binding free energy” value worked out at 0.09 kcal/mol.

For the sequence TTAGGCACGTGAGGAA, the “relative binding free energy” value is 0.15 kcal/mol.

With TGTCACACGTGGTATT, the “relative binding free energy” value turned out to be 0.04 kcal/mol.

Take GGGATCACGTGCTTGT: the “relative binding free energy” value worked out at 0.22 kcal/mol.

As to TTAGTCACGTGATATT, the “relative binding free energy” value is 0.38 kcal/mol.

For the sequence ATCATCACGTGAAGGG, the “relative binding free energy” value came out at 0.23 kcal/mol.

As for GGGGCCACGTGAGATG, the “relative binding free energy” value is 0.17 kcal/mol.

Turning to AAGGTCACGTGGCATG, the “relative binding free energy” value was 0 kcal/mol.

For AGAGTCACGTGATAGT, the “relative binding free energy” value worked out at 0.24 kcal/mol.

With GTTGGCACGTGGACGT, the “relative binding free energy” value is -0.11 kcal/mol.

GTCGTCACGTGGTACG: the “relative binding free energy” value amounted to 0.2 kcal/mol.

For AGTAGCACGTGTATTG, the “relative binding free energy” value was -0.14 kcal/mol.

Take TTATGCACGTGTGATA: the “relative binding free energy” value was -0.04 kcal/mol.

For the sequence GGGTGCACGTGGGATT, the “relative binding free energy” value was -0.01 kcal/mol.

As to TTGCGCACGTGGGATG, the “relative binding free energy” value is -0.17 kcal/mol.

For TTTTACACGTGTAGGG, the “relative binding free energy” value was determined as 0.11 kcal/mol.

With CGTTTCACGTGAGTCG, the “relative binding free energy” value was found to be 0.5 kcal/mol.

Regarding GAGTTCACGTGGGCAG, the “relative binding free energy” value was found to be 0.3 kcal/mol.

Take AGTCGCACGTGGTTGC: the “relative binding free energy” value is -0.04 kcal/mol.

Consider TGAGTCACGTGTCGGT, for which the “relative binding free energy” value is 0 kcal/mol.

ACGTTCACGTGAGGGG: the “relative binding free energy” value is 0.31 kcal/mol.

Consider TTATCCACGTGGGCAG, for which the “relative binding free energy” value is -0.05 kcal/mol.

As to GGAATCACGTGGTTCT, the “relative binding free energy” value amounted to 0.24 kcal/mol.

As to AGAGGCACGTGGGGGT, the “relative binding free energy” value was -0.23 kcal/mol.

As for TATGCCACGTGTATTG, the “relative binding free energy” value was -0.06 kcal/mol.

Regarding TAGGACACGTGTACGG, the “relative binding free energy” value stood at 0.08 kcal/mol.

GTGTTCACGTGTTTGG: the “relative binding free energy” value was determined as 0.36 kcal/mol.

Regarding CTGGACACGTGGGGTC, the “relative binding free energy” value was -0.02 kcal/mol.

Take TAATGCACGTGTGGAC: the “relative binding free energy” value amounted to 0.13 kcal/mol.

As to ATGAACACGTGAAGGT, the “relative binding free energy” value was 0.3 kcal/mol.

As for AGGGACACGTGCGGAT, the “relative binding free energy” value was found to be 0 kcal/mol.

As to TTTATCACGTGCGAGG, the “relative binding free energy” value amounted to 0.14 kcal/mol.

For the sequence AAATGCACGTGGAAGT, the “relative binding free energy” value came to 0.1 kcal/mol.

As for ATAGGCACGTGGAGGG, the “relative binding free energy” value is -0.1 kcal/mol.

Regarding AGGTACACGTGGGCAA, the “relative binding free energy” value is 0.01 kcal/mol.

Turning to TTGCGCACGTGGTGTA, the “relative binding free energy” value was -0.32 kcal/mol.

As for TTTATCACGTGTATGC, the “relative binding free energy” value is 0.18 kcal/mol.

For the sequence AGTTCCACGTGTAGTG, the “relative binding free energy” value was -0.08 kcal/mol.

AAGTGCACGTGATATT: the “relative binding free energy” value stood at 0.02 kcal/mol.

On to ATTGACACGTGGGTAC, for which the “relative binding free energy” value was -0.15 kcal/mol.

On to GATTACACGTGTTTTC, for which the “relative binding free energy” value was determined as 0.4 kcal/mol.

As to AAGGACACGTGAGCGT, the “relative binding free energy” value is 0.3 kcal/mol.

CTGGGCACGTGCTTTT: the “relative binding free energy” value was -0.17 kcal/mol.

Consider GGTTGCACGTGTTCTT, for which the “relative binding free energy” value stood at 0.13 kcal/mol.

For GTCAGCACGTGTAATG, the “relative binding free energy” value came to 0.14 kcal/mol.

Turning to TTTCTCACGTGAGGGT, the “relative binding free energy” value worked out at 0.23 kcal/mol.

Take GTGTTCACGTGTATAT: the “relative binding free energy” value worked out at 0.29 kcal/mol.

GGTAGCACGTGGGGGT: the “relative binding free energy” value is -0.15 kcal/mol.

Consider TGCGACACGTGATTGG, for which the “relative binding free energy” value is 0.04 kcal/mol.

In the case of ATATACACGTGGGGAT, the “relative binding free energy” value was -0.2 kcal/mol.

In the case of ATCTGCACGTGTTGGG, the “relative binding free energy” value was 0.1 kcal/mol.

Consider GTGTACACGTGGAGGG, for which the “relative binding free energy” value turned out to be 0.01 kcal/mol.

With GTCGTCACGTGAATGT, the “relative binding free energy” value came to 0.18 kcal/mol.

Consider GTTCACACGTGAAGTG, for which the “relative binding free energy” value is 0.21 kcal/mol.

As to AGATTCACGTGCTGGG, the “relative binding free energy” value is 0.29 kcal/mol.

Take GATTGCACGTGTTTGA: the “relative binding free energy” value was found to be 0.15 kcal/mol.

Take ATGGTCACGTGAGAGT: the “relative binding free energy” value is 0.29 kcal/mol.

On to GGACTCACGTGGTTTT, for which the “relative binding free energy” value amounted to 0.23 kcal/mol.

For the sequence GATGTCACGTGGCGAG, the “relative binding free energy” value is 0.2 kcal/mol.

As for GATTTCACGTGATGGG, the “relative binding free energy” value worked out at 0.52 kcal/mol.

Regarding AGAGGCACGTGAGTGG, the “relative binding free energy” value came out at 0 kcal/mol.

With TGGTCCACGTGGCTGG, the “relative binding free energy” value is -0.14 kcal/mol.

Regarding TGATTCACGTGAAGGT, the “relative binding free energy” value is 0.4 kcal/mol.

As to TGACACACGTGGTTTA, the “relative binding free energy” value worked out at 0.04 kcal/mol.

Turning to TGTTGCACGTGCCATG, the “relative binding free energy” value is -0.1 kcal/mol.

With CATGTCACGTGGGTGT, the “relative binding free energy” value is -0.24 kcal/mol.

Regarding GCTTACACGTGGGTGG, the “relative binding free energy” value was determined as 0.03 kcal/mol.

GGGAACACGTGAGGCG: the “relative binding free energy” value was found to be 0.27 kcal/mol.
